# Reference: the antibiotic and cytotoxicity screens of Wong et al. (2023)
# The list shows a part of the results.
# What was measured:
# HSkMC = human skeletal muscle cells; test: cytotoxicity call (relative viability < 0.9); details: 10 µM
# S. aureus RN4220 = test: growth inhibition call (relative growth <= 0.2); details: 50 µM
SMILES,cytotoxicity call (HSkMC),growth inhibition call (S. aureus RN4220)
CN(C)CCN1CCNCC1,inactive,inactive
C[C@@H]1CN([C@H](C)CO)C(=O)c2cc(NC(=O)C3CCCCC3)ccc2O[C@@H](C)CCCCO[C@H]1CN(C)S(=O)(=O)c1ccc(F)cc1,inactive,inactive
C[C@@H]1CN([C@@H](C)CO)S(=O)(=O)c2ccc(C#CCN(C)C)cc2O[C@H]1CN(C)Cc1ccc(F)cc1,inactive,inactive
C[C@H]1CN([C@@H](C)CO)C(=O)Cc2cc(NC(=O)Cn3cnnn3)ccc2O[C@@H]1CN(C)S(=O)(=O)c1ccc(F)cc1,inactive,inactive
O=C(C[C@H]1C[C@@H]2c3cc(NC(=O)C4CCOCC4)ccc3O[C@@H]2[C@@H](CO)O1)NCc1ccc(Cl)cc1,inactive,inactive
COc1ccc(CN(C)C[C@@H]2OCCCC[C@@H](C)Oc3ccc(NC(=O)Nc4cccc5ccccc45)cc3C(=O)N([C@@H](C)CO)C[C@@H]2C)cc1,inactive,inactive
C[C@H](CO)N1C[C@H](C)[C@@H](CN(C)C(=O)Nc2cccc(F)c2)OCc2ccccc2-c2ccccc2C1=O,inactive,inactive
C[C@H](O)C#Cc1ccc2c(c1)O[C@@H](CN(C)C(=O)c1ccncc1)[C@@H](C)CN([C@@H](C)CO)S2(=O)=O,inactive,inactive
C[C@@H]1CCCCO[C@H](CN(C)C(=O)Nc2ccc3c(c2)OCO3)[C@@H](C)CN([C@H](C)CO)C(=O)c2cc(NC(=O)c3ccccc3)ccc2O1,inactive,inactive
C[C@@H](NC(=O)C[C@@H]1C=C[C@H](NC(=O)CN2CCOCC2)[C@H](CO)O1)c1ccccc1,inactive,inactive
COC(=O)CCCCCNc1n[nH]c(=O)[nH]c1=O,inactive,inactive
C[C@@H]1CN([C@@H](C)CO)C(=O)Cc2cc(NS(=O)(=O)c3ccc(F)cc3)ccc2O[C@H]1CN(C)Cc1ccc(Oc2ccccc2)cc1,inactive,inactive
C[C@@H]1CN([C@H](C)CO)C(=O)c2cc(NC(=O)Nc3ccccc3)ccc2O[C@@H]1CN(C)S(=O)(=O)c1cn(C)cn1,inactive,inactive
Cc1ccc(N2C(=O)c3ccccc3[C@](C)(C(=O)NCCN3CCOCC3)[C@@H]2c2ccc(CO)cc2)nc1,inactive,inactive
CCCN(C)C[C@@H]1Oc2cc(C#Cc3ccccc3OC)ccc2S(=O)(=O)N([C@@H](C)CO)C[C@@H]1C,inactive,inactive
CC1(C)CCC2(C(=O)O)CCC3(C)C(=CCC4C5(C)CCC(O)C(C)(C)C5CCC43C)C2C1 (stereo not drawn),inactive,inactive
CC(C)N1C[C@H](C)[C@@H](CN(C)Cc2ccc(Oc3ccccc3)cc2)Oc2c(C(=O)Nc3ccncc3)cccc2C1=O,inactive,inactive
C[C@@H]1CN([C@H](C)CO)C(=O)c2c(c3ccccc3n2C)-c2ccccc2CO[C@@H]1CN(C)CC1CCCCC1,inactive,inactive
COc1ccc([Si](C)(C)[C@H]2[C@H](CCO)O[C@@]3(C(=O)N(Cc4ccc(N5C(=O)c6cccc7cccc5c67)cc4)c4ccccc43)[C@@H]2C)cc1,inactive,inactive
C[C@H](CO)N1C[C@H](C)[C@H](CN(C)CC2CCCCC2)Oc2c(NC(=O)c3cnccn3)cccc2C1=O,inactive,inactive

SMILES,cytotoxicity call (HSkMC),growth inhibition call (S. aureus RN4220)
C[C@@H]1CCCCO[C@@H](CN(C)C(=O)C2CCCCC2)[C@H](C)CN([C@@H](C)CO)C(=O)c2cc(NS(=O)(=O)c3ccc(F)cc3)ccc2O1,inactive,inactive
COC(=O)c1c(CC[C@@H](CO)NC(=O)N[C@H](Cc2ccccc2)Cn2cc(-c3ccccc3N)nn2)oc(C(C)=O)c1C(=O)OC,inactive,inactive
C[C@]12C[C@@H]3C[C@](C)(C1)C[C@@](N)(C3)C2,inactive,inactive
C[C@H]1CN([C@@H](C)CO)C(=O)Cc2cc(NC(=O)C3CC3)ccc2O[C@@H]1CN(C)Cc1ccc2c(c1)OCO2,inactive,inactive
CNC(=O)C(=O)Nc1ccc(C)c(F)c1,inactive,inactive
C[C@@H]1CN([C@@H](C)CO)C(=O)c2cccc(NC(=O)Nc3ccccc3)c2O[C@@H]1CN(C)S(=O)(=O)c1cn(C)cn1,inactive,inactive
COc1ccc(S(=O)(=O)N(C)C[C@H]2Oc3ccc(NC(=O)NC(C)C)cc3C(=O)N([C@@H](C)CO)C[C@@H]2C)cc1,inactive,inactive
COc1ccc(S(=O)(=O)Nc2ccc3c(c2)C(=O)N([C@H](C)CO)C[C@@H](C)[C@H](CN(C)Cc2ccc(C(F)(F)F)cc2)OCCCC[C@H](C)O3)cc1,inactive,inactive
O[C@H]1[C@H](O)[C@@H](O)[C@H]2O[C@@H]2[C@@H]1O,inactive,inactive
CC(C)(c1cc(Br)c(O)c(Br)c1)c1cc(Br)c(O)c(Br)c1,inactive,active
CNC(=O)C[C@H]1CC[C@H]2[C@@H](COC[C@@H](O)CN2C(=O)Nc2ccc3c(c2)OCO3)O1,inactive,inactive
CN1CCN(C(=O)C[C@H]2CC[C@@H]3[C@H](COc4ccc(NC(=O)c5ccc(F)c(F)c5)cc4C(=O)N3C)O2)CC1,inactive,inactive
Cc1ccc(S(=O)(=O)Nc2ccc3c(c2)C(=O)N([C@@H](C)CO)C[C@@H](C)[C@@H](CN(C)C(=O)Nc2ccc4c(c2)OCO4)OCCCC[C@H](C)O3)cc1,inactive,inactive
CC(C)NC(=O)N(C)C[C@H]1Oc2ccc(NC(=O)Cc3ccccc3)cc2CC(=O)N([C@H](C)CO)C[C@@H]1C,inactive,inactive
C[C@H](CO)N1C[C@H](C)[C@H](CN(C)S(=O)(=O)c2cccs2)OCCCC[C@H](C)Oc2ccc(NC(=O)NC3CCCCC3)cc2C1=O,inactive,inactive
C[C@H](CO)N1C[C@H](C)[C@H](CN(C)C(=O)CN2CCOCC2)Oc2ncc(C3=CCCCC3)cc2C1=O,inactive,inactive
Cc1ccc(S(=O)(=O)N(C)C[C@@H]2Oc3ccc(NC(=O)C4CC4)cc3C(=O)N([C@H](C)CO)C[C@@H]2C)cc1,inactive,inactive
CNC(=O)C[C@@H]1CC[C@@H]2[C@H](COC[C@@H](O)CN2C(=O)c2ccccn2)O1,inactive,inactive
C[C@H]1CN([C@@H](C)CO)C(=O)c2cccc(NC(=O)Nc3ccc(C(F)(F)F)cc3)c2O[C@@H]1CN(C)Cc1ccc(C(=O)Nc2ccccc2N)cc1,inactive,inactive
C[C@@H]1CN([C@H](C)CO)C(=O)c2cccc(NS(=O)(=O)c3ccccc3)c2O[C@H]1CN(C)Cc1ccc(-c2ccccc2)cc1,inactive,inactive

SMILES,cytotoxicity call (HSkMC),growth inhibition call (S. aureus RN4220)
CCCNC(=O)C[C@@H]1CC[C@@H]2[C@@H](COc3ccc(NC(=O)c4ccc5c(c4)OCO5)cc3C(=O)N2C)O1,inactive,inactive
C[C@@H]1CN([C@@H](C)CO)S(=O)(=O)c2ccc(C#CC(C)(C)O)cc2O[C@H]1CN(C)C(=O)C1CCCCC1,inactive,inactive
O=C(C[C@H]1CC[C@@H]2[C@H](COC[C@H](O)CN2C(=O)c2ccc3c(c2)OCO3)O1)NCCN1CCCCC1,inactive,inactive
Cc1noc(C)c1S(=O)(=O)N(C)C[C@H]1OCCCC[C@H](C)Oc2ccc(NC(=O)Nc3ccc(C(F)(F)F)cc3)cc2C(=O)N([C@H](C)CO)C[C@@H]1C,inactive,inactive
COc1ccc(NC(=O)Nc2ccc3c(c2)C(=O)N([C@H](C)CO)C[C@@H](C)[C@@H](CN(C)C(=O)c2ccccc2)OCCCC[C@H](C)O3)cc1,inactive,inactive
C[C@@H]1CN([C@@H](C)CO)C(=O)c2c(c3ccccc3n2C)-c2ccccc2CO[C@@H]1CN(C)C(=O)[C@H](C)c1ccccc1,inactive,inactive
C[C@@H]1CN([C@H](C)CO)C(=O)c2cc(NS(C)(=O)=O)ccc2O[C@@H]1CN(C)C(=O)Nc1ccccc1,inactive,inactive
C[C@H]1CN([C@@H](C)CO)C(=O)Cc2cc(NC(=O)c3ccncc3)ccc2O[C@@H]1CN(C)Cc1ccc(-c2ccccc2)cc1,inactive,inactive
C[C@@H]1CN([C@H](C)CO)C(=O)Cc2cc(NC(=O)c3ccncc3)ccc2O[C@H]1CN(C)S(=O)(=O)c1cn(C)cn1,inactive,inactive
Cc1ccc(S(=O)(=O)N2C[C@H](O)COC[C@@H]3O[C@H](CC(=O)NCCCN(C)C)CC[C@H]32)cc1,inactive,inactive
C=C(C)C1CCC2(C(=O)O)CCC3(C)C(CCC4C5(C)CCC(O)C(C)(C)C5CCC43C)C12 (stereo not drawn),inactive,inactive
C#CCN1C(=O)N(C(=O)c2ccccc2)[C@@]2(COCc3ccc(OC)cc3)Oc3ccccc3[C@@H]1[C@H]2CO[Si](C)(C)C(C)(C)C,inactive,inactive
O=C(C[C@H]1CC[C@@H]2NC[C@H](O)COC[C@H]2O1)NCCN1CCCCC1,inactive,inactive
O=C(C[C@H]1C[C@H]2c3cc(NC(=O)NC4CCCC4)ccc3O[C@H]2[C@H](CO)O1)NCc1ccc(-c2ccccc2)cc1,inactive,inactive
CCOC(=O)C1=C(C)NC(c2ccccc2)=C(C(=O)OCc2ccc([N+](=O)[O-])cc2)[C@@H]1C#Cc1ccccc1,inactive,inactive
C[C@H]1CCCCO[C@@H](CN(C)C(=O)Nc2cccc3ccccc23)[C@@H](C)CN([C@@H](C)CO)C(=O)c2cc(NC(=O)c3ccncc3)ccc2O1,inactive,inactive
C[C@H]1CN([C@@H](C)CO)C(=O)c2c(c3ccccc3n2C)-c2ccccc2CO[C@@H]1CN(C)S(C)(=O)=O,inactive,inactive
CC(=O)c1ccc(O)c(C(N)=O)c1,inactive,inactive
CO[C@@H]1[C@@H](O[C@@H]2O[C@H](C)[C@@H](O[C@H]3C[C@@](C)(O)[C@@H](O)[C@H](C)O3)[C@H](N(C)C)[C@H]2O)[C@@H](CC=O)C[C@@H](C)[C@@H](O[C@H]2CC[C@H](N(C)C)[C@@H](C)O2)/C=C/C=C/C[C@@H](C)OC(=O)C[C@H]1O,inactive,active
